Experimental data as given in the supplement of paper PMC4166925.
± gives the standard deviation of the averaged measurements. In all, about 33,000 sequences were measured (“E-score (dimensionless, -0.5 to 0.5)”: median about -0.046, highest 2% from about 0.36 on). The list shows a part of the results.

system: T1, SpTbr T-box DNA-binding domain (GST fusion); assay: PBM E-score of 8-mer (E-score (dimensionless, -0.5 to 0.5)); Tbr is Tbrain of the sea star Patiria miniata (Pm) or the sea urchin Strongylocentrotus purpuratus (Sp); higher = stronger binding preference; most listed sequences are background and not binding sites; conditions: the construct has about 5 more residues each side
T1 sequence: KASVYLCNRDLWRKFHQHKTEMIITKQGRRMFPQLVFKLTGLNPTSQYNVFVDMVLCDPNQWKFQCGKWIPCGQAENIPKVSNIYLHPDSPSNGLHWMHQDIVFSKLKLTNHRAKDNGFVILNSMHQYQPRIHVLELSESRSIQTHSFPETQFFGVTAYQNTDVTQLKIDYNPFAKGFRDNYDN
Procedure, shortened: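 Universal Agilent oligonucleotide arrays, made double-stranded by primer extension, were incubated with 200 nM GST-fused Tbr T-box DNA-binding domain in PBS (pH 7.5). The protein was expressed in BL21 E. coli at 20 °C and purified by glutathione affinity chromatography. After scanning and quantification, the Universal PBM Analysis Suite assigned an enrichment E-score to each ungapped 8-mer, averaged over duplicate arrays.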

Sequence	PBM E-score of 8-mer
AAAAGAGA	0.0439 ± 0.02
CCTACACA	0.111 ± 0.019
ACCCATCG	0.0311 ± 0.045
TCAGCTGA	-0.331 ± 0.081
ACTTTGCG	0.176 ± 0.0057
ATGAGCAG	-0.029 ± 0.014
ACCATCCG	-0.0919 ± 0.04
ATGCCGGG	-0.205 ± 0.036
GTTGCTTA	-0.114 ± 0.0076
AACTTTGC	0.134 ± 0.0063
CGAGTTTA	0.127 ± 0.064
AACATCCG	-0.0978 ± 0.01
GCGTGTTA	0.302 ± 0.018
CCACTTTA	0.0213 ± 0.0022
AAACCGAA	-0.0901 ± 0.072
CCAAATTA	-0.0884 ± 0.034
CCCTAACG	-0.104 ± 0.049
CACTAAGG	-0.0643 ± 0.08
ACACATAT	0.407 ± 0.0072
CTGAGGTA	-0.0862 ± 0.025
CAATGACC	-0.105 ± 0.041
GCGTGATA	0.363 ± 0.0041

Sequence	PBM E-score of 8-mer
AAAGTGCC	0.17 ± 0.071
CATTGTTC	-0.157 ± 0.0097
GCTATTGA	0.0355 ± 0.001
AATAGCCG	-0.00329 ± 0.054
ACTTCATA	-0.0145 ± 0.018
ACAGTGCA	-0.0284 ± 0.09
CACGGATA	-0.124 ± 0.013
ACTGCAAG	-0.158 ± 0.07
CTGCCAGC	0.0132 ± 0.024
CCAGAGTA	-0.1903 ± 0.00049
GGAGAGTA	-0.181 ± 0.038
CACTTATA	0.169 ± 0.011
TCTTAGAA	-0.174 ± 0.0046
ACCATCGC	0.184 ± 0.056
ACTTTTGA	-0.0941 ± 0.084
ACAATACG	0.00636 ± 0.045
CGACTTCA	0.0761 ± 0.038
ACACACTG	0.143 ± 0.0015
AGGATTGG	-0.0109 ± 0.032
CCCAACCG	-0.123 ± 0.026
CACAAGTA	0.136 ± 0.028
AACCGCTC	-0.0893 ± 0.047

Sequence	PBM E-score of 8-mer
AGAGATCG	0.0319 ± 0.044
AGAAGCAA	-0.102 ± 0.078
AATCCACT	-0.181 ± 0.026
GCCTCGCA	0.119 ± 0.022
CATGTAAG	0.0432 ± 0.022
CTAAGGCC	-0.257 ± 0.059
CCGAGGAA	-0.274 ± 0.065
ACGTGTCT	0.204 ± 0.034
CGATGGGA	-0.181 ± 0.087
CCAGGGAA	-0.149 ± 0.05
GTGTCACA	0.436 ± 0.011
ACGTTACC	0.0489 ± 0.019
TGGGTTAA	-0.0208 ± 0.0051
ACACCTGG	0.44 ± 0.029
GAAGGTCC	-0.148 ± 0.022
GGTCAATA	-0.216 ± 0.074
ATGGTTCG	0.126 ± 0.032
GCAGCAGC	-0.0756 ± 0.038
ACGTACAG	0.0581 ± 0.0014
ACGACGCG	0.105 ± 0.1
CACTGTGG	-0.142 ± 0.096
GCACATCA	0.135 ± 0.035

Sequence	PBM E-score of 8-mer
TAGACTAA	-0.229 ± 0.035
AGGAGATG	-0.0796 ± 0.025
CGTTGATA	0.0605 ± 0.049
GGGCCAAA	-0.158 ± 0.0097
GTTCCAGA	-0.235 ± 0.0034
ATTCAATC	0.0196 ± 0.053
GAGTTGGC	0.0652 ± 0.087
CCGGAAGA	-0.0281 ± 0.014
AGTAAGGC	0.0629 ± 0.074
AAACCATC	-0.0776 ± 0.02
AACCGACG	-0.0597 ± 0.014
CCCCAATA	-0.0532 ± 0.049
AGTTCTAA	-0.1082 ± 0.00016
ACCACGCA	-0.00904 ± 0.12
CATACGCC	-0.0482 ± 0.023
AGTGACTC	-0.0563 ± 0.09
CTAGTGTC	0.205 ± 0.017
AGGACGTG	0.162 ± 0.012
GTTCTCGA	0.153 ± 0.004
AATTAATT	-0.0217 ± 0.12
GTTCGATA	-0.109 ± 0.079
TAAGTCGA	0.059 ± 0.049

Sequence	PBM E-score of 8-mer
ATCCGGGC	-0.22 ± 0.081
AATCCCCG	-0.0831 ± 0.043
AGGCCCCC	-0.346 ± 0.0094
CTGGATAA	-0.167 ± 0.056
GCTTTTTA	0.041 ± 0.1
ACTTATGA	-0.0354 ± 0.033
ACGTGAGA	0.3312 ± 0.0033
AAAGGTCC	0.0265 ± 0.0014
AGAGAGTG	0.178 ± 0.032
ACCTTGGA	0.188 ± 0.022
CGACAGGC	0.14 ± 0.01
ACGGGTAG	-0.0489 ± 0.023
ACCTCCAG	-0.0622 ± 0.097
AAAAGCGT	0.1914 ± 0.0012
AAGCTATC	-0.0846 ± 0.015
ATGTACGA	-0.0943 ± 0.036
CAGGAACG	0.116 ± 0.025
GTAATTCA	-0.0412 ± 0.0055
GCCATGAC	-0.122 ± 0.13
CTGAGAGA	-0.0256 ± 0.016
ATCAGTGC	-0.0668 ± 0.09
